Experimental data published in PubChem BioAssay AID624296 (National Center for Advancing Translational Sciences (NCATS), 2012).
Out of some 350,000 compounds screened, about 9,900 (2.8%) were called active. The shares of active, inactive and inconclusive entries below differ from those in the screen. Calls come from the whole dose curve; as a rule, active = well fitted activation curve with a large enough effect; inconclusive = small, poorly fitted or top-dose-only effect; inactive = no such curve, though single readings can be large or run the other way. No potency is given beside an inconclusive call; the fits are too rough.

Assay: A quantitative high throughput screen for small molecules that induce DNA re-replication in MCF 10a normal breast cells. For activity, positive = re-replication: % of control where 0% means no effect. Note: nearly all actives have a fitted effect of over 50% in size.
Settings: MCF 10A DNA re-replication, Hoechst nuclear intensity, 48 h; activity, positive = re-replication: at 46.1 µM (top of the series)
Potency is the fitted concentration of half-maximal effect; tags give direction and shape of the fitted curve.

| SMILES | Potency | activity, positive = re-replication |
| --- | --- | --- |
| N=c1c2c(-c3ccccc3)c(-c3ccccc3)n(Cc3ccccc3)c2ncn1CCO | inconclusive [activator, single point] |  |
| COc1ccccc1Nc1nc(N)nc(-c2cc3ccccc3o2)n1 | inconclusive [activator, partial curve, poor fit] |  |
| O=[N+]([O-])c1ccc(-[n+]2ccc3ccccc3c2)c([N+](=O)[O-])c1 | inconclusive [activator, partial curve] |  |
| Cc1ccc(C(=O)N/N=C/c2ccc(-c3cccc(Cl)c3)o2)cn1 | inconclusive [activator, single point] |  |
| O=C(COC(=O)c1cc(S(=O)(=O)N2CCc3ccccc3C2)ccc1Cl)NCc1ccco1 | inconclusive [activator, partial curve, poor fit] |  |
| Cc1ccc(S(=O)(=O)N2CCC(C(=O)N3CCCC(C(F)(F)F)C3)CC2)cc1C (configuration not stated) |  | inactive: 14.4% |
| COc1cc(NC(=S)N2CCC(C(O)(c3ccccc3)c3ccccc3)CC2)cc(OC)c1 | inconclusive [activator, single point] |  |
| CCN(CC)CC(O)COc1ccc2c(c1)c(C(C)=O)c(C)n2-c1ccccc1 (configuration not stated) | inconclusive [activator, partial curve, poor fit] |  |
| CCn1nnc(-c2ccccc2NC(=O)C(F)(F)F)n1 |  | inactive: -5.14% |
| Cc1nc(NCCOc2ccccc2)sc1C(=O)Nc1ccccc1 |  | inactive: -1.86% |
| O=C(Cc1c(F)cccc1Cl)Nc1ccccc1-c1ccccc1 | inconclusive [activator, full curve, poor fit] |  |
| CC(C)(C)OC(=O)N[C@H](C(=O)OC(C)(C)C)c1ccc(Br)cc1 |  | inactive: 2.13% |
| COc1ccc(-c2csc3nc(-c4ccc(C)cc4)oc(=O)c23)cc1OC | inconclusive [activator, partial curve] |  |
| Cc1noc(C)c1COc1ccc(C(=O)OCC(=O)NCc2ccccc2Cl)cc1 | inconclusive [activator, single point] |  |
| O=C(CCCn1cncn1)N1CCCC(N2CCN(c3ccccc3F)CC2)C1 (configuration not stated) |  | inactive: 0.636% |
| Fc1ccc(-c2cc3nc(-c4ccccc4)cc(N4CCN(CCN5CCOCC5)CC4)n3n2)cc1 |  | inactive: -8.84% |
| CC(C)(C)C(=O)Nc1cc2c3c(c1)CCC(=O)N3CCC2 | inconclusive [activator, single point] |  |
| Cc1ccc(CN2C(=O)c3ccccc3NC2c2cc(Br)ccc2O)cc1 (configuration not stated) | inconclusive [activator, partial curve] |  |
| O=C(CSc1nc2ccccc2s1)c1ccc(O)cc1O | inconclusive [activator, single point] |  |
| Cc1ccc(C=NNC(=O)c2cc(-c3cccnc3)nc3ccccc23)o1 | active: 5.17 µM |  |
| COc1ccc(C#Cc2ccc3c(c2)c(=O)c2ccccc2n3C)cc1 |  | inconclusive: 131% [activator] |
| CC(C)Oc1ccccc1/C=N/Nc1ccccc1[N+](=O)[O-] | inconclusive [activator, partial curve, poor fit] |  |
| O=C(NC1CCCc2ccccc21)c1ccccc1OC(F)F (configuration not stated) |  | inactive: 10% |
| COC(=O)c1ccc2c(=O)n(NC(C)=O)c(=S)[nH]c2c1 |  | inactive: 7.41% |

| SMILES | Potency | activity, positive = re-replication |
| --- | --- | --- |
| O=C(NC1CCCN(Cc2ccc(Cl)cc2)C1)c1cccc(F)c1 (configuration not stated) |  | inactive: 6.09% |
| COc1ccc(-c2c(-c3ccccc3OC)oc3ccccc23)cn1 | active: 16.4 µM |  |
| COc1ccc(-c2nnc(CSc3nc4ccccc4c(=O)n3CC(C)C)o2)cc1OC |  | inactive: -1.22% |
| Cc1ccc(S(=O)(=O)N(CC(O)CN(C)C)c2ccccc2)cc1 (configuration not stated) |  | inactive: -0.903% |
| CC(C)n1nc(C(=O)Nc2nnc(SCc3c(Cl)cccc3Cl)s2)c2ccccc2c1=O | inconclusive [activator, full curve] |  |
| CC(=O)C[C@H](O)CC(=O)[C@@H]1OC(=O)CCCCCCc2ccccc21 |  | inactive: 5.35% |
| Cc1cc(NC(=O)c2ccc3[nH]c(C)c(C)c3c2)ccn1 |  | inactive: 10.3% |
| CC(=O)NC(c1ccc(C)cc1)c1cc(Cl)c2cccnc2c1O (configuration not stated) | inconclusive [activator, single point] |  |
| c1ccc(N2CCN(Cc3ccc4c(c3)OCO4)CC2)nc1 |  | inactive: -6.28% |
| CCOC(=O)Cn1c(S(=O)(=O)Cc2ccccc2Cl)nc(-c2ccccc2)c1-c1ccccc1 | inconclusive [activator, full curve, poor fit] |  |
| Cc1cc(OCC#N)nc(N)n1 |  | inactive: -0.133% |
| Cc1ccc(S(=O)(=O)N2CCOCC2)cc1C(=O)OCC(=O)NCCc1ccccc1 |  | inactive: -1.87% |
| CS(=O)(=O)c1ccc2nc(NC(=O)c3cccc(NS(=O)(=O)c4ccc(F)c(F)c4)c3)sc2c1 | inconclusive [activator, single point] |  |
| CCOC(=O)c1c(C)n(-c2ccc(C)cc2)c2ccc(O)c(CN(C)C)c12 | inconclusive [activator, single point] |  |
| COC(=O)CCCCCN1C(=O)NC(c2ccccc2)C(C(=O)OCc2ccccc2)=C1C (configuration not stated) | inconclusive [activator, partial curve, poor fit] |  |
| O=C(C1CCCCC1)N1CCN(C(=O)C2CCCCC2)CC1 | inconclusive [activator, full curve] |  |
| O=S(=O)(c1ccccc1)N1N=C(c2ccccc2)CC1c1ccccc1F (configuration not stated) | inconclusive [activator, single point] |  |
| CCc1ccc(N(C(=O)c2snc(C(N)=O)c2N)C(C(=O)NC2CCCC2)c2ccco2)cc1 (configuration not stated) | active: 6.51 µM |  |
| CCN(Cc1ccccc1)C(=S)NC(=O)c1ccccc1Br |  | inactive: 15.1% |
| c1cncc(CSc2ccc(-c3cccs3)nn2)c1 |  | inactive: 1.73% |
| COc1cc(-c2cc(-c3ccc(O)cc3)nc(N)c2C#N)ccc1O | inconclusive [activator, single point] |  |
| COc1ccc(-n2nnnc2SCC(=O)Nc2cccc(C)n2)cc1OC | inconclusive [activator, single point] |  |
| Cc1nc(N2CCCCC2C)c2c(C)c(C(=O)Nc3ccccc3C(F)(F)F)sc2n1 (configuration not stated) |  | inactive: 12.2% |
